# Data as given in the supplement of paper PMC8728848.
# The list shows a part of the results.
# Experiments:
# Assay in all cases: glycan array binding signal (z-score within array); higher = stronger binding
# Conditions in all cases: glycan notation: IUPAC condensed, linker removed
# [1] = target: Neu5Ac(a2-6)Gal(b1-4)GlcNAc(b1-3)Gal(b1-4)GlcNAc(b1-3)GalNAc
# Procedure, shortened: (§1)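 The Consortium for Functional Glycomics database supplied 3228 glycan arrays, of which those lacking an available protein sequence were dropped. The binding signal, a within-array Z-score, was averaged across arrays of the same protein sequence and across linkers. Negative scores can be read as non-binding.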
# [2] = target: Neu5Ac(a2-6)Gal(b1-4)GlcNAc(b1-3)Gal(b1-4)GlcNAc(b1-3)[Neu5Ac(a2-6)Gal(b1-4)GlcNAc(b1-3)Gal(b1-4)GlcNAc(b1-6)]GalNAc
# Procedure, shortened: as §1
# [3] = target: Neu5Ac(a2-6)Gal(b1-4)GlcNAc(b1-3)Gal(b1-4)GlcNAc(b1-6)[Gal(b1-3)]GalNAc
# Procedure, shortened: as §1
# [4] = target: Neu5Ac(a2-6)Gal(b1-4)GlcNAc(b1-3)Gal(b1-4)[Fuc(a1-3)]GlcNAc(b1-3)Gal(b1-4)[Fuc(a1-3)]GlcNAc
# Procedure, shortened: as §1
# [5] = target: Neu5Ac(a2-6)Gal(b1-4)GlcNAc(b1-3)GalNAc
# Procedure, shortened: as §1
# [6] = target: Neu5Ac(a2-6)Gal(b1-4)GlcNAc(b1-3)[Neu5Ac(a2-6)Gal(b1-4)GlcNAc(b1-6)]GalNAc
# Procedure, shortened: as §1
# [7] = target: Neu5Ac(a2-6)Gal(b1-4)GlcNAc(b1-6)GalNAc
# Procedure, shortened: as §1
# [8] = target: Neu5Ac(a2-6)Gal(b1-4)GlcNAc(b1-6)[Gal(b1-3)GlcNAc(b1-3)]Gal(b1-4)Glc
# Procedure, shortened: as §1
# [9] = target: Neu5Ac(a2-6)Gal(b1-4)GlcNAc(b1-6)[Gal(b1-3)]GalNAc
# Procedure, shortened: as §1
# [10] = target: Neu5Ac(a2-6)Gal(b1-4)GlcNAc6S
# Procedure, shortened: as §1
# Neu5Ac(a2-6)GalNAc = target: Neu5Ac(a2-6)GalNAc
# Procedure, shortened: as §1
# [11] = target: Neu5Ac(a2-6)GalNAc(b1-4)GlcNAc
# Procedure, shortened: as §1
# [12] = target: Neu5Ac(a2-6)GalNAc(b1-4)GlcNAc6S
# Procedure, shortened: as §1
# [13] = target: Neu5Ac(a2-6)GlcNAc(b1-4)GlcNAc
# Procedure, shortened: as §1
# [14] = target: Neu5Ac(a2-6)GlcNAc(b1-4)GlcNAc(b1-4)GlcNAc
# Procedure, shortened: as §1
# Neu5Ac(a2-8)Neu5Ac = target: Neu5Ac(a2-8)Neu5Ac
# Procedure, shortened: as §1
# [15] = target: Neu5Ac(a2-8)Neu5Ac(a2-3)Gal(b1-3)GalNAc(b1-4)[Neu5Ac(a2-3)]Gal(b1-4)Glc
# Procedure, shortened: as §1
# [16] = target: Neu5Ac(a2-8)Neu5Ac(a2-3)Gal(b1-3)GalNAc(b1-4)[Neu5Ac(a2-8)Neu5Ac(a2-3)]Gal(b1-4)Glc
# Procedure, shortened: as §1
# [17] = target: Neu5Ac(a2-8)Neu5Ac(a2-3)Gal(b1-4)Glc
# Procedure, shortened: as §1
# [18] = target: Neu5Ac(a2-8)Neu5Ac(a2-3)Gal(b1-4)GlcNAc
# Procedure, shortened: as §1
# [19] = target: Neu5Ac(a2-8)Neu5Ac(a2-3)[Gal(b1-3)GalNAc(b1-4)]Gal(b1-4)Glc
# Procedure, shortened: as §1
# [20] = target: Neu5Ac(a2-8)Neu5Ac(a2-3)[GalNAc(b1-4)]Gal(b1-4)Glc
# Procedure, shortened: as §1
# [21] = target: Neu5Ac(a2-8)Neu5Ac(a2-8)Neu5Ac
# Procedure, shortened: as §1
# [22] = target: Neu5Ac(a2-8)Neu5Ac(a2-8)Neu5Ac(a2-3)Gal(b1-4)Glc
# Procedure, shortened: as §1
# [23] = target: Neu5Ac(a2-8)Neu5Ac(a2-8)Neu5Ac(a2-3)[Gal(b1-3)GalNAc(b1-4)]Gal(b1-4)Glc
# Procedure, shortened: as §1
# [24] = target: Neu5Ac(a2-8)Neu5Ac(a2-8)Neu5Ac(a2-3)[GalNAc(b1-4)]Gal(b1-4)Glc
# Procedure, shortened: as §1
# [25] = target: Neu5Ac(a2-8)Neu5Ac(a2-8)Neu5Ac(a2-8)Neu5Ac(a2-3)[GalNAc(b1-4)]Gal(b1-4)Glc
# Procedure, shortened: as §1
# [26] = target: Neu5Ac(a2-8)Neu5Gc(a2-3)Gal(b1-4)GlcNAc
# Procedure, shortened: as §1
# [27] = target: Neu5Ac(b2-6)Gal(b1-4)GlcNAc
# Procedure, shortened: as §1
# Neu5Ac(b2-6)GalNAc = target: Neu5Ac(b2-6)GalNAc
# Procedure, shortened: as §1
# [28] = target: Neu5Ac9Ac(a2-3)Gal(b1-3)GlcNAc
# Procedure, shortened: as §1
# [29] = target: Neu5Ac9Ac(a2-3)Gal(b1-4)GlcNAc
# Procedure, shortened: as §1
# [30] = target: Neu5Ac9Ac(a2-6)Gal(b1-4)GlcNAc
# Procedure, shortened: as §1
# [31] = target: Neu5Gc(a2-3)Gal(b1-3)GlcNAc
# Procedure, shortened: as §1
# [32] = target: Neu5Gc(a2-3)Gal(b1-3)[Fuc(a1-4)]GlcNAc
# Procedure, shortened: as §1
# Neu5Gc(a2-3)Gal(b1-4)Glc = target: Neu5Gc(a2-3)Gal(b1-4)Glc
# Procedure, shortened: as §1
# [33] = target: Neu5Gc(a2-3)Gal(b1-4)GlcNAc
# Procedure, shortened: as §1
# [34] = target: Neu5Gc(a2-3)Gal(b1-4)GlcNAc(b1-3)Gal(b1-4)GlcNAc(b1-2)Man(a1-3)[Neu5Gc(a2-3)Gal(b1-4)GlcNAc(b1-3)Gal(b1-4)GlcNAc(b1-2)Man(a1-6)]Man(b1-4)GlcNAc(b1-4)GlcNAc
# Procedure, shortened: as §1
# [35] = target: Neu5Gc(a2-3)Gal(b1-4)[Fuc(a1-3)]GlcNAc
# Procedure, shortened: as §1
# [36] = target: Neu5Gc(a2-6)Gal(b1-4)GlcNAc
# Procedure, shortened: as §1
# Neu5Gc(a2-6)GalNAc = target: Neu5Gc(a2-6)GalNAc
# Procedure, shortened: as §1
# [37] = target: Neu5Gc(a2-8)Neu5Ac(a2-3)Gal(b1-4)GlcNAc
# Procedure, shortened: as §1
# [38] = target: Neu5Gc(a2-8)Neu5Gc(a2-3)Gal(b1-4)GlcNAc
# Procedure, shortened: as §1
# [39] = target: Neu5Gc(a2-8)Neu5Gc(a2-3)Gal(b1-4)GlcNAc(b1-3)Gal(b1-4)GlcNAc
# Procedure, shortened: as §1
# [40] = target: Neu5Gc(a2-8)Neu5Gc(a2-6)Gal(b1-4)GlcNAc
# Procedure, shortened: as §1
# [41] = target: Neu5Gc(b2-6)Gal(b1-4)GlcNAc
# Procedure, shortened: as §1
binder,measurement,setting,value
PX9961V-pdi-562-26-562 (Parabacteroides distasonis) (protein) EIFSEITTDNYYQNSNNIYAALVNNYAKAFSTGWSDARYFLQEVTADQLMIPTRGKHGYNGGEYVRLHEHKWTVEENFVYNGWAAPFQGIALCNNTLSDFENLDFSTFKLTEETKNEYIAELRALRVWNYMFLIDFFRHVPIVTDIEEVKAQSTPLEVFNFMESELLAILPDLPKNRGVSRFDQAGVASILVRLYLNAEKWIGISKYDECEQMAQAILDGKYGEYSIDPDYRGPFRSGINGYRSKENIMEFAIKKNYFEASWLYNMWMHYQDRYSLDNDWQGWNGGNLAPSRDLYGNLYQDKLGMPFEKFPDGDIRKKAFRVISNDGDYEGFFLMGTQYKFDYEKGYGFTDEVITGTEEYNGKPLVYVDQVGRFSEGETGLAKGSHVIYGEENTGYRLIKFPWLPQSKDLFQMNSIPEIRLAEIYYSLAECKYRSGDKIGAARLLDVVRKRYYKAEDWSKFSYESNISKLTDDEFVDELGREFIGERHRRIDLIRWNRFSEGAWWDKTPDATNQDVFPIPYRALNANPLLKQTTAGF,glycan array binding signal (z-score),[1],-0.177
same,glycan array binding signal (z-score),[2],-0.255
same,glycan array binding signal (z-score),[3],-0.312
same,glycan array binding signal (z-score),[4],0.588
same,glycan array binding signal (z-score),[5],0.398
same,glycan array binding signal (z-score),[6],-0.166
same,glycan array binding signal (z-score),[7],-0.271
same,glycan array binding signal (z-score),[8],-0.349
same,glycan array binding signal (z-score),[9],-0.27
same,glycan array binding signal (z-score),[10],-0.448
same,glycan array binding signal (z-score),Neu5Ac(a2-6)GalNAc,-0.5
same,glycan array binding signal (z-score),[11],-0.355
same,glycan array binding signal (z-score),[12],-0.742
same,glycan array binding signal (z-score),[13],-0.416
same,glycan array binding signal (z-score),[14],-0.609
same,glycan array binding signal (z-score),Neu5Ac(a2-8)Neu5Ac,-0.274
same,glycan array binding signal (z-score),[15],-0.606
same,glycan array binding signal (z-score),[16],0.306
same,glycan array binding signal (z-score),[17],-0.607
same,glycan array binding signal (z-score),[18],-0.574
same,glycan array binding signal (z-score),[19],0.136
same,glycan array binding signal (z-score),[20],-0.364
same,glycan array binding signal (z-score),[21],-0.656
same,glycan array binding signal (z-score),[22],-0.576
same,glycan array binding signal (z-score),[23],0.05
same,glycan array binding signal (z-score),[24],-0.652
same,glycan array binding signal (z-score),[25],0.683
same,glycan array binding signal (z-score),[26],2.96
same,glycan array binding signal (z-score),[27],0.773
same,glycan array binding signal (z-score),Neu5Ac(b2-6)GalNAc,-0.409
same,glycan array binding signal (z-score),[28],-0.712
same,glycan array binding signal (z-score),[29],-0.389
same,glycan array binding signal (z-score),[30],-0.56
same,glycan array binding signal (z-score),[31],-0.579
same,glycan array binding signal (z-score),[32],-0.515
same,glycan array binding signal (z-score),Neu5Gc(a2-3)Gal(b1-4)Glc,-0.025
same,glycan array binding signal (z-score),[33],0.017
same,glycan array binding signal (z-score),[34],-0.054
same,glycan array binding signal (z-score),[35],-0.162
same,glycan array binding signal (z-score),[36],-0.522
same,glycan array binding signal (z-score),Neu5Gc(a2-6)GalNAc,-0.458
same,glycan array binding signal (z-score),[37],-0.485
same,glycan array binding signal (z-score),[38],-0.391
same,glycan array binding signal (z-score),[39],-0.604
same,glycan array binding signal (z-score),[40],-0.086
same,glycan array binding signal (z-score),[41],-0.322
